Assay results reported in PubChem BioAssay AID488969 (Vanderbilt High Throughput Screening Facility, 2010).
Over roughly 110,000 compounds, “z-score” has its median near -0.1; the highest 2% begin near 2. This is one part of the list. The source made the active and inactive calls.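 Rule for the calls: active = z-score in the third read window above 3 or below -3; inactive = the rest.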

Biological target: Metabotropic glutamate receptor 8 (Rattus norvegicus) (UniProt P70579)
Test: rat mGluR8 modulators via GIRK flux, primary screen, cell-based, thallium flux, HTS (AID 488969)
Settings: HEK293 rat mGluR8, GIRK (G protein-gated inwardly rectifying potassium channel) thallium flux, FluoZin2; at 10 µM; stronger effect = higher value; submaximal glutamate (EC20) added with thallium

Sequence of UniProt P70579 (P70579 whole entry, looked up): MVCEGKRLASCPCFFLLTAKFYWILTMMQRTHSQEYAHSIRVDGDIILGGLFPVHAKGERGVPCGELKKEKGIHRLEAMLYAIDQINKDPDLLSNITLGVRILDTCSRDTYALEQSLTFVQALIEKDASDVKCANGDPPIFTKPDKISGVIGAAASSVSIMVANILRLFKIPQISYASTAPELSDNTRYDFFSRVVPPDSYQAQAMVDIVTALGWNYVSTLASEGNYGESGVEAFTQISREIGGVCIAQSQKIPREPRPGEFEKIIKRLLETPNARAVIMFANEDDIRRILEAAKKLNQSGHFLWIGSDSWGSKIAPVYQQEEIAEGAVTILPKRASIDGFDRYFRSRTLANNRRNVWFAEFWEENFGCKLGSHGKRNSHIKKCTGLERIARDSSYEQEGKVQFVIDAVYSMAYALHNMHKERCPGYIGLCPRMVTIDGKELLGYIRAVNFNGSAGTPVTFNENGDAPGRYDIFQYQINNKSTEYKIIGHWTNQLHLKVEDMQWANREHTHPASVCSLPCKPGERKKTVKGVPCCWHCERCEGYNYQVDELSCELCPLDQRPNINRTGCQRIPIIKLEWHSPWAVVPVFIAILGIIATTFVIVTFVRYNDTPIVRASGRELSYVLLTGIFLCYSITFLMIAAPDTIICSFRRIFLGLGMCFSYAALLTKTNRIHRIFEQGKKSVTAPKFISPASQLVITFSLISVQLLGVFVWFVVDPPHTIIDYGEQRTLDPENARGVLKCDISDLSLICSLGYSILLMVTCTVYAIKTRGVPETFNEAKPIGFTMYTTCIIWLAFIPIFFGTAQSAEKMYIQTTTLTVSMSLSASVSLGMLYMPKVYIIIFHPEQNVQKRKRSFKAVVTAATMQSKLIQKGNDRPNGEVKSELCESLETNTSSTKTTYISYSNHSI

| Compound | z-score |
| --- | --- |
| O=C(NCc1ccccn1)c1ccc(Br)s1 | -0.124 |
| COCCn1c(N)c(C#N)c2nc3ccccc3nc21 | -0.354 |
| CC1(C)Cc2nc(N3CCOCC3)c(C#N)cc2CO1 | -0.0959 |
| COC(=O)C1=C(C)N=C2SC(C)C(=O)N2C1c1cccs1 (stereo unspecified) | -0.173 |
| Cc1cc(OCc2nn[nH]n2)c2c(-c3ccccc3)cc(=O)oc2c1 | 0.399 |
| O=C(CN1C(=O)/C(=C\c2ccc(F)cc2)Oc2ccccc21)NCc1ccco1 | 0.138 |
| O=C(CN1CCN(Cc2ccccc2)CC1)Nc1cccc(C(F)(F)F)c1 | active: 7.94 |
| O=C(CSc1nnc(-c2cccc(S(=O)(=O)N3CCOCC3)c2)n1C1CCCCCC1)NCc1ccccc1 | -0.107 |
| CCn1c(COc2ccc3c(c2)OCO3)nnc1SCC(=O)c1ccc(Cl)cc1 | -0.433 |
| COc1ccc(C(=O)Nn2c(SCC(=O)N3CCC(C)CC3)nc3ccccc3c2=O)cc1 | -0.163 |
| Cc1ccc(C2(C)NC(=O)N(CC(=O)Nc3cc(C)on3)C2=O)cc1 (stereo unspecified) | -0.0921 |
| CCCCc1cc(=O)oc2cc(C)cc(O)c12 | active: -3.56 |
| O=C(N1CCN(c2ccccc2F)CC1)C12CC3CC(CC(C3)C1)C2 | -0.199 |
| CC(C)(C(=O)c1ccccc1)/[N+]([O-])=C/c1ccc(F)cc1 | -0.0905 |
| COc1cccc(Nc2nc3ccccc3n3nnnc23)c1 | 0.931 |
| CCN(CC)C(=O)COC(=O)c1ccc(O)cc1 | -0.62 |
| COc1ccc(COc2ccsc2C(=O)Nc2ccc(Cl)c(Cl)c2)cc1 | -0.187 |
| Cc1ccnc(SCCn2c(N3CCCCC3)nc3c2c(=O)n(C)c(=O)n3C)n1 | -0.159 |
| O=C(CN1CCOCCOCCOCC1)Nc1ccccc1 | 0.274 |
| COc1cccc(-c2nc3ccccc3s2)c1 | -0.116 |
| CN1C(=S)N(c2ccccc2)C(=O)/C1=C/c1ccco1 | -0.162 |
| O=C(NC(Cc1c[nH]c2ccccc12)C(=O)NCc1ccc(F)cc1)OCc1ccccc1 (stereo unspecified) | -0.155 |
| CS(=O)(=O)N(CCc1ccccc1)CC(=O)NCc1cccnc1 | 0.68 |

| Compound | z-score |
| --- | --- |
| CN(C)c1ccc(CN(C(=O)COc2ccc(Br)cc2)C2CCS(=O)(=O)C2)cc1 (stereo unspecified) | 0.0654 |
| COc1ccc(C(=O)NCC(C)C)c(OC)c1 | 0.305 |
| CC1CN(S(=O)(=O)c2ccccc2)C(C)CN1S(=O)(=O)c1ccccc1 (stereo unspecified) | 0.115 |
| Cc1cc2nc(SCC(=O)N(C)C)c3c(c2cc1C)CCCC3 | -0.519 |
| Cn1c(CNC(=O)c2cccs2)nnc1SCC(=O)Nc1ccc(Cl)cc1 | -0.205 |
| CC(/C=C/c1ccccc1)=N/NC(=O)CNC(=O)c1ccc2c(c1)OCO2 | -0.0611 |
| Cc1cc(NC(=O)CCC(=O)N(Cc2cccs2)C(C(=O)NC2CCCC2)c2ccccc2)no1 (stereo unspecified) | -0.18 |
| O=C(O)c1cc(S(=O)(=O)N2CCCCCC2)c(Cl)cc1Cl | -0.0409 |
| COc1ccc(-c2cc(=O)oc3cc(OC(=O)C4CCCCC4)ccc23)cc1 | -0.232 |
| COc1ccc(F)cc1S(=O)(=O)n1cc(C)nc1-c1ccccc1 | -0.886 |
| Cc1nnc(SCC(=O)n2c3c(c4ccccc42)CCCC3)s1 | -0.0805 |
| Cc1ccc(C(=O)NNC(=O)CSc2nnc(-c3ccncc3)n2C)cc1 | -0.121 |
| COc1ccc(C(=O)n2nc(C)cc2C)cc1OC | -0.221 |
| COc1ccc(S(=O)(=O)NCCc2ccccc2)cc1 | 0.0311 |
| CN1CCN(C(=O)CN(CCc2ccccc2)S(C)(=O)=O)CC1 | 0.0439 |
| COc1cc(C=O)ccc1OCC(=O)N1CCOCC1 | -0.617 |
| Cc1cccc(OCC(=O)Nc2ccc(N3CCN(C(=O)c4ccco4)CC3)cc2)c1 | -0.087 |
| Cn1/c(=N/N=C/c2ccc([N+](=O)[O-])cc2)sc2ccccc21 | -0.205 |
| CCOC(=O)c1c(C)nc2c(c1-c1cc(OC)c(OC)c(OC)c1)C(=O)c1ccccc1-2 | -0.175 |
| Oc1ccc(N=C/C=C/c2ccc(Br)cc2)cc1-c1nc2ccccc2s1 | -0.362 |
| Cc1noc(C)c1S(=O)(=O)N1CCC(C(=O)N2CCC(N3CCCCC3)CC2)CC1 | 0.13 |
| Cc1nc(N2CCOCC2)nc(OCCN2CCOCC2)c1[N+](=O)[O-] | -0.39 |
| Cn1cc(SCC(=O)O)c2ccccc21 | -0.123 |

| Compound | z-score |
| --- | --- |
| CC(Cc1cccs1)NC(=S)Nc1ccc(F)cc1 (stereo unspecified) | -0.132 |
| Cc1cnc(C(=O)OCC(=O)N(C(C)C)C(C)C)cn1 | -0.272 |
| COC(=O)C1C(=O)C2=C(CC1C)NC(C)=C(C(=O)OCCOc1ccccc1)C2c1ccc(C)o1 (stereo unspecified) | -1.61 |
| CCOc1ccc(C2c3c(oc4ccccc4c3=O)C(=O)N2CCCN2CCOCC2)cc1 (stereo unspecified) | -0.851 |
| O=C(c1cnn2c(C(F)F)cc(C3CC3)nc12)N1CCOCC1 | -0.302 |
| Cn1cc(-c2nnnn2-c2ccccc2)c(=O)c2ccccc21 | 0.01 |
| COC(=O)CSc1nc(NC#N)nc(NC(C)C)n1 | -0.00648 |
| Cc1ccccc1N1CCN(C(=O)c2ccccc2NC(=O)C2CC=CCC2C(=O)O)CC1 (stereo unspecified) | -0.389 |
| CC(C)CC(=O)n1sc(NC(=O)c2ccccc2)nc1=O | -0.65 |
| O=C1NCC(c2ccccc2)C1C(=O)N/N=C\c1ccc(-c2cccc(Cl)c2Cl)o1 (stereo unspecified) | 0.334 |
| COc1ccccc1S(=O)(=O)Nc1ccc2cn[nH]c2c1 | -0.13 |
| CC(C)CCNC(=O)c1cccc(C(=O)NCCC(C)C)c1 | -0.145 |
| COc1ccc(N(CC(=O)N2CCCCC2)S(=O)(=O)c2c(C)nn(C)c2C)cc1 | 0.0812 |
| CCOc1ccc(-c2nc(C#N)c(N3CCN(C)CC3)o2)cc1 | 0.278 |
| CCOc1ccc(NS(=O)(=O)CC23CCC(CC2=O)C3(C)C)cc1 (stereo unspecified) | 0.425 |
| CCOC(=O)N1CCN(C(=O)CS(=O)Cc2nc(-c3cccc(C)c3)oc2C)CC1 (stereo unspecified) | -0.252 |
| COc1ccc2oc3cc(C)[n+]([O-])c(-c4ccc(C)cc4)c3c2c1 | -1.14 |
| O=C(/C=C/c1cccc(F)c1)N(c1ccccn1)C1CCCCC1 | 0.127 |
| COc1cc(OC)c(-c2nc3c[n+](CC(=O)c4ccccc4)ccc3n2C)cc1OC | 0.162 |
| COc1ccc(NC(=O)CSc2nnc(Cn3nnc4ccccc43)n2C)cc1 | -0.0884 |
| CCn1ncc(/C=C/C(=O)Nc2c(C)nn(Cc3ccc(Cl)cc3Cl)c2C)c1C | -0.897 |
| Cn1c(CNc2ccc(Cl)cc2)nnc1SCCN1CCCCC1 | 0.273 |
| Oc1cccc(NC(=S)Nc2cccnc2)c1 | -0.756 |

| Compound | z-score |
| --- | --- |
| Cc1ccc(C(C)C)c(OCc2ccc(C(=O)N/N=C/c3cccc(O)c3O)cc2)c1 | -0.457 |
| O=S(=O)(c1ccc(Cl)cc1)N1CCCC1c1nc(-c2cccc(Cl)c2)no1 (stereo unspecified) | 0.0836 |
| O=c1nc(-c2ccccc2)cn[nH]1 | 0.0419 |
| C/C(=N\NC(=O)C1CC1(c1ccccc1)c1ccccc1)c1cccc([N+](=O)[O-])c1 (stereo unspecified) | -0.124 |
| Cc1cccc(-c2cc(C(=O)Nc3sc(C)c(C)c3C(N)=O)c3ccccc3n2)c1 | -0.0149 |
| Fc1ccc(/C=C2\CCCC3=C2Nc2ncnn2C3c2ccc(F)cc2)cc1 (stereo unspecified) | -0.184 |
| CCNc1nc(SC)nc(N(C#N)CC(=O)OC)n1 | -0.0523 |
| O=C1C(=O)N(CCOCCO)C(c2ccccn2)/C1=C(\O)c1ccccc1 (stereo unspecified) | 0.0923 |
| CC(=O)N1CCN(c2ccc(Oc3nnnn3-c3ccccc3)cc2)CC1 | -0.0818 |
| O=C(OCC(=O)N1CCCC1)c1cncc(Br)c1 | 0.255 |
| CCOC(=O)c1ccc(S(=O)(=O)Nc2cc(C(C)(C)C)no2)cc1 | 0.412 |
| COCC(=O)N1CCC(n2nnc3cc(F)ccc32)CC1 | -0.0323 |
| CC(C)N(CC#CCC1(O)c2ccccc2-c2ccccc21)CCO | 0.101 |
| CC1CCC/C(=C\Nc2ccc(O)cc2)C1=O (stereo unspecified) | -0.462 |
| COc1ccc(OC)c(S(=O)(=O)N2CCCCC2C(=O)O)c1 (stereo unspecified) | 0.288 |
| Fc1ccccc1/C=N/NC(=S)Nc1ccc(Cl)cc1Cl | active: 3.47 |
| O=C(NC1CCCCC1)C(c1ccncc1)N(Cc1ccccc1)C(=O)c1ccc(-c2ccccc2)[nH]1 (stereo unspecified) | -0.272 |
| CCOCCCNC(=O)Cn1ncc2c(=O)oc3ccccc3c21 | -0.371 |
| CCn1c(=S)[nH]c2ccccc21 | 0.63 |
| CCCCc1nnc(SCc2ccc(OCC)cc2)n1N | -0.214 |
| Cc1cc(=O)c2cc(Br)ccc2[nH]1 | -0.136 |
| O=C(CSc1nnc(CNC(=O)c2cccs2)o1)NCc1ccc(F)cc1 | -0.187 |
| CCS(=O)(=O)N1CCN(c2ccccn2)CC1 | -0.0417 |

| Compound | z-score |
| --- | --- |
| Cc1cccc(N2CCN(C(=O)Cn3sc4nc(C)cc(C)c4c3=O)CC2C)c1 (stereo unspecified) | 0.149 |
| COCCn1c(CN(Cc2ccccc2)Cc2ccccc2)nc2c1c(=O)n(C)c(=O)n2C | active: 3.37 |
| CCOC(=O)c1ccc(CSc2nncn2N)o1 | -0.0767 |
| COC(=O)C(C(=O)OC)C(C[N+](=O)[O-])c1ccc(OC)c(OC)c1 (stereo unspecified) | 0.148 |
| Cc1ncc([N+](=O)[O-])n1CC(C)O (stereo unspecified) | 0.025 |
| CCn1c(CN2CCN(c3ccc(Cl)cc3)CC2)nc2ccccc21 | -0.234 |
| COC(=O)c1ccc(NN=Nc2ccc(C)cc2)cc1 | -0.0599 |
| Cc1c(C(=O)N2CCC(C)CC2)sc2ncnc(N(C)c3ccccc3)c12 | -0.66 |
| COC(=O)Cn1cnc2sc(C)c(S(=O)(=O)N3CCC(C)CC3)c2c1=O | 0.108 |
| Cc1ccc(-n2ncc3c(NCC4CCCO4)ncnc32)c(C)c1 (stereo unspecified) | -0.069 |
| COc1ccc(NC(=O)CCC2CCCCC2)cc1S(=O)(=O)N1CCCCC1 | -0.36 |
| Cc1ccc(C)c(N2CCN(c3ccc(N4C(=O)COCC4=O)cc3[N+](=O)[O-])CC2)c1 | -0.128 |
| O=C(O)CN=C(NS(=O)(=O)c1ccc(Cl)cc1)c1ccccc1 | 0.274 |
| CCOC(=O)c1cc2sc(C)cc2n1CC(=O)NCc1ccc(F)cc1 | -0.00664 |
| COc1ccccc1C1C=C(c2ccc(Cl)cc2)Nc2nc(N3C(=O)CCC3=O)nn21 (stereo unspecified) | -0.597 |
| COC(=O)C1=CNC=C(C(=O)OC)C1c1ccc(Cl)cc1 | -0.447 |
| N/C(CCCN1CCCCC1)=N/O | 0.285 |
| Cc1cccc(-c2nnc(-c3cccc(NC(=O)Cc4cccs4)c3)o2)c1 | 0.0914 |
| Nn1c(SCC(=O)NC2CCCCC2)nnc1-c1ccccc1 | -0.113 |
